Test results published in the supplement of paper PMC11125491.
± gives the standard deviation of the averaged measurements. Growth of baker's yeast expressing single-residue variants of Pneumocystis jirovecii dihydrofolate reductase in 8.8 or 44 µM methotrexate (about 75% and 90% inhibition of the wild type). Selection coefficient per generation; 0 = like wild type, above 0 = less sensitive, below 0 = more sensitive or loss of function. No active / inactive call per row; the paper calls resistant above 0.220 (8.8 µM) or 0.243 (44 µM) together with a significance test. At 44 µM about 15% of codons end with one read or none, so the lowest values are floors (replicate rank correlation 0.74; 0.94 at 8.8 µM).

B1: UniProt A0EPZ9; numbered along this chain (parent)
chain: MDWQKSLTLIVALTLSRGIGLKNDLPWKLKSDMMFFSRVTSGLLVTRSTGQMNVVLMGRKTWESLPAHSRPLKNRINVVISRQEVLDLGGGAYHARSLDDALALLSQIYDSTSKIQLNRVFVIGGGELCKAAMEHSRLNRIIATVIHNEVDCDVFFPIDFRSSQSCLPWRKQDHSVLEAWVGSKVPQGKINENGFIYEFEMWIRDI

Variants of: B1
Assay: selection coefficient against synonymous wild-type codons (log2 per generation); higher = faster growth than wild type
Settings: with Saccharomyces cerevisiae carrying the variant on a plasmid
Protocol: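 Pooled growth of yeast carrying single-residue variants of P. jirovecii dihydrofolate reductase (own DFR1 gene intact), two passages at 30 °C, three cultures, sequenced before and after. Codons with under 15 starting reads are left out; codons of one change are averaged.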

Variant: MDWQKSLTLIVALTLSRGIGLKNDLPWKLKSDMMFFSRVTSGLLVTRSTGQMNVVLMGRKTWESLPAHSRPLKNRINVVISRQEVLDLCGGAYHARSLDDALALLSQIYDSTSKIQLNRVFVIGGGELCKAAMEHSRLNRIIATVIHNEVDCDVFFPIDFRSSQSCLPWRKQDHSVLEAWVGSKVPQGKINENGFIYEFEMWIRDI [G89C]
- selection coefficient against synonymous wild-type codons (log2) (methotrexate 8.8 µM): -0.179 ± 0.048
- selection coefficient against synonymous wild-type codons (log2) (methotrexate 44 µM): -0.109 ± 0.04

Variant: MDWQKSLTLIVALTLSRGIGLKNDLPWKLKSDMMSFSRVTSGLLVTRSTGQMNVVLMGRKTWESLPAHSRPLKNRINVVISRQEVLDLGGGAYHARSLDDALALLSQIYDSTSKIQLNRVFVIGGGELCKAAMEHSRLNRIIATVIHNEVDCDVFFPIDFRSSQSCLPWRKQDHSVLEAWVGSKVPQGKINENGFIYEFEMWIRDI [F35S]
- selection coefficient against synonymous wild-type codons (log2) (methotrexate 8.8 µM): 0.416 ± 0.047
- selection coefficient against synonymous wild-type codons (log2) (methotrexate 44 µM): 0.711 ± 0.048

Variant: MDWQKSLTLIVALTLSRGIGLKNDLPWKLKSDMMFFSRVTSGLLVTRSTGQMNVVLMGRKTWESLPAHSRRLKNRINVVISRQEVLDLGGGAYHARSLDDALALLSQIYDSTSKIQLNRVFVIGGGELCKAAMEHSRLNRIIATVIHNEVDCDVFFPIDFRSSQSCLPWRKQDHSVLEAWVGSKVPQGKINENGFIYEFEMWIRDI [P71R]
- selection coefficient against synonymous wild-type codons (log2) (methotrexate 8.8 µM): 0.334 ± 0.038
- selection coefficient against synonymous wild-type codons (log2) (methotrexate 44 µM): 0.426 ± 0.051

Variant: MDWQKSLTLIVALTLSRGIGLKNDLPWKLKSDMMFFSRVTSGLLVTRSTGQMNVVLMGRKTWESLPAHSRPLKNRINVVISRQEVLDLGGGLYHARSLDDALALLSQIYDSTSKIQLNRVFVIGGGELCKAAMEHSRLNRIIATVIHNEVDCDVFFPIDFRSSQSCLPWRKQDHSVLEAWVGSKVPQGKINENGFIYEFEMWIRDI [A92L]
- selection coefficient against synonymous wild-type codons (log2) (methotrexate 8.8 µM): -0.728 ± 0.091
- selection coefficient against synonymous wild-type codons (log2) (methotrexate 44 µM): -0.281 ± 0.087

Variant: MDWQKSLTLIVALTLSRGIGLKNDLPWKLKSDMMFFSRVTSGLLVGRSTGQMNVVLMGRKTWESLPAHSRPLKNRINVVISRQEVLDLGGGAYHARSLDDALALLSQIYDSTSKIQLNRVFVIGGGELCKAAMEHSRLNRIIATVIHNEVDCDVFFPIDFRSSQSCLPWRKQDHSVLEAWVGSKVPQGKINENGFIYEFEMWIRDI [T46G]
- selection coefficient against synonymous wild-type codons (log2) (methotrexate 8.8 µM): 0.0565 ± 0.033
- selection coefficient against synonymous wild-type codons (log2) (methotrexate 44 µM): 0.063 ± 0.034

Variant: MDWQKSLTLIVALTLSRGIGLKNDLPWKLKSDMMFFSRVTSGLLVTRSTGQMNVVLMGRKTWESLPAHSRPLKNRINVVISRQEVLDLGGGAYHARSLDDALALLSQIYDSTSKIQLNRVFVIGGGELCKAAMEHSRLNRIIMTVIHNEVDCDVFFPIDFRSSQSCLPWRKQDHSVLEAWVGSKVPQGKINENGFIYEFEMWIRDI [A143M]
- selection coefficient against synonymous wild-type codons (log2) (methotrexate 8.8 µM): -0.0424 ± 0.014
- selection coefficient against synonymous wild-type codons (log2) (methotrexate 44 µM): -0.0415 ± 0.16

Variant: MDWQKSLTLIVALTLSRGIGLKNDLPWKLKSDMMFFSRVTSGLAVTRSTGQMNVVLMGRKTWESLPAHSRPLKNRINVVISRQEVLDLGGGAYHARSLDDALALLSQIYDSTSKIQLNRVFVIGGGELCKAAMEHSRLNRIIATVIHNEVDCDVFFPIDFRSSQSCLPWRKQDHSVLEAWVGSKVPQGKINENGFIYEFEMWIRDI [L44A]
- selection coefficient against synonymous wild-type codons (log2) (methotrexate 8.8 µM): 0.122 ± 0.026
- selection coefficient against synonymous wild-type codons (log2) (methotrexate 44 µM): 0.0524 ± 0.13

Variant: MDWQKSLTLIVALTLSRGIGLKNDLPWKLKSDMMFFSRVTSGLLVTRSTGQMNVVLMGRKTWESLPAHSRPLKNRINVVISRQEVLDLGGGAYHARSLDDAEALLSQIYDSTSKIQLNRVFVIGGGELCKAAMEHSRLNRIIATVIHNEVDCDVFFPIDFRSSQSCLPWRKQDHSVLEAWVGSKVPQGKINENGFIYEFEMWIRDI [L102E]
- selection coefficient against synonymous wild-type codons (log2) (methotrexate 8.8 µM): -0.709 ± 0.19
- selection coefficient against synonymous wild-type codons (log2) (methotrexate 44 µM): -0.291 ± 0.027

Variant: MDWQKSLTLIVALTLSRGIGLKNDLPWKLKSDMMFFSRVTSGLLVTRSTGQMNVVLMGRKTWESLPAHSRPLKNRINVVISRQEVLDLGGGAYHARSLDDALALLSEIYDSTSKIQLNRVFVIGGGELCKAAMEHSRLNRIIATVIHNEVDCDVFFPIDFRSSQSCLPWRKQDHSVLEAWVGSKVPQGKINENGFIYEFEMWIRDI [Q107E]
- selection coefficient against synonymous wild-type codons (log2) (methotrexate 8.8 µM): 0.00318 ± 0.032
- selection coefficient against synonymous wild-type codons (log2) (methotrexate 44 µM): 0.0157 ± 0.049

Variant: MDWQKSLTLIVALTLSRGIGLKNDLPWKLKSDMMFFSRVTSGLLVTRSTGQMNVVLMGRKTWESLPAHSRPLKNRINVVISRQEVLDLGGGAYHARSLDDALALLSQIYDSTSKIRLNRVFVIGGGELCKAAMEHSRLNRIIATVIHNEVDCDVFFPIDFRSSQSCLPWRKQDHSVLEAWVGSKVPQGKINENGFIYEFEMWIRDI [Q116R]
- selection coefficient against synonymous wild-type codons (log2) (methotrexate 8.8 µM): -0.13 ± 0.034
- selection coefficient against synonymous wild-type codons (log2) (methotrexate 44 µM): -0.134 ± 0.064

Variant: MDWQKSLTLIVALTLSRGIGLKNDLPWKLKSDMMFFSRVTSGLLVTRSTGQMNVVLMGRKTWESQPAHSRPLKNRINVVISRQEVLDLGGGAYHARSLDDALALLSQIYDSTSKIQLNRVFVIGGGELCKAAMEHSRLNRIIATVIHNEVDCDVFFPIDFRSSQSCLPWRKQDHSVLEAWVGSKVPQGKINENGFIYEFEMWIRDI [L65Q]
- selection coefficient against synonymous wild-type codons (log2) (methotrexate 8.8 µM): 0.0557 ± 0.058
- selection coefficient against synonymous wild-type codons (log2) (methotrexate 44 µM): 0.059 ± 0.13

Variant: MDWQKSLTLIVALTLSRGIGLKNDLPWKLKSDMMFFSRVTSGLLVTRSTGQMNVVLMGRKTWESLPAHSRPLKNRINVVISRQEVLDLGGGAYHARSLDDALALLSQIYDSTSKIQLNRVFVIGGGRLCKAAMEHSRLNRIIATVIHNEVDCDVFFPIDFRSSQSCLPWRKQDHSVLEAWVGSKVPQGKINENGFIYEFEMWIRDI [E127R]
- selection coefficient against synonymous wild-type codons (log2) (methotrexate 8.8 µM): -0.084 ± 0.043
- selection coefficient against synonymous wild-type codons (log2) (methotrexate 44 µM): 0.00117 ± 0.27

Variant: MDWQKSLTLIVALTLSRGIGLKNDLPWKLKSDMMFFNRVTSGLLVTRSTGQMNVVLMGRKTWESLPAHSRPLKNRINVVISRQEVLDLGGGAYHARSLDDALALLSQIYDSTSKIQLNRVFVIGGGELCKAAMEHSRLNRIIATVIHNEVDCDVFFPIDFRSSQSCLPWRKQDHSVLEAWVGSKVPQGKINENGFIYEFEMWIRDI [S37N]
- selection coefficient against synonymous wild-type codons (log2) (methotrexate 8.8 µM): 0.17 ± 0.023
- selection coefficient against synonymous wild-type codons (log2) (methotrexate 44 µM): 0.243 ± 0.054

Variant: MDWQKSLTLIVALTLSRGIGLKNDLPWKLKSDMMFFSRVTSGLLVTRSTGQMNVVLMGRKTWESLPAHSRPLKNRINVVISRQEVLDLGGGAYHARSLDDALALLSQIYDSTSKIQLNRVFVIGGGELCKAAMEHSRLNRIIATVIHNEVDCDVFFPIDFRSSQWCLPWRKQDHSVLEAWVGSKVPQGKINENGFIYEFEMWIRDI [S165W]
- selection coefficient against synonymous wild-type codons (log2) (methotrexate 8.8 µM): -0.0799 ± 0.028
- selection coefficient against synonymous wild-type codons (log2) (methotrexate 44 µM): -0.219 ± 0.1

Variant: MDWQKSLTLIVALTLSRGIGLKNDLPWKLKSDMMFFSRVTSGLLVTRSTGQMNVVLMGRKTWESLPAHSRPLKNRINVVISRQEVLDLGGGAYHARSLDDALALLSQIYDSTSKIQLNRVFVIGGGELCKAAMEHSRLNRIIATVIHNEVDCDVFFPYDFRSSQSCLPWRKQDHSVLEAWVGSKVPQGKINENGFIYEFEMWIRDI [I158Y]
- selection coefficient against synonymous wild-type codons (log2) (methotrexate 8.8 µM): 0.0164 ± 0.026
- selection coefficient against synonymous wild-type codons (log2) (methotrexate 44 µM): -0.0246 ± 0.017
